The text below walks through data of paper PMC4336329 (PLoS ONE, 2015).

Out of some 310,000 compounds screened, about 2,200 (0.71%) showed an effect of 50% or more. Effects have a minus sign here. This is one part of the list.

In this test the target is human ether-à-go-go-related gene (hERG) potassium channel (human, UniProt Q12809). Description: primary screen, population patch clamp on CHO cells stably expressing hERG.
human ether-à-go-go-related gene (hERG) potassium channel, sequence (Q12809 whole entry, looked up): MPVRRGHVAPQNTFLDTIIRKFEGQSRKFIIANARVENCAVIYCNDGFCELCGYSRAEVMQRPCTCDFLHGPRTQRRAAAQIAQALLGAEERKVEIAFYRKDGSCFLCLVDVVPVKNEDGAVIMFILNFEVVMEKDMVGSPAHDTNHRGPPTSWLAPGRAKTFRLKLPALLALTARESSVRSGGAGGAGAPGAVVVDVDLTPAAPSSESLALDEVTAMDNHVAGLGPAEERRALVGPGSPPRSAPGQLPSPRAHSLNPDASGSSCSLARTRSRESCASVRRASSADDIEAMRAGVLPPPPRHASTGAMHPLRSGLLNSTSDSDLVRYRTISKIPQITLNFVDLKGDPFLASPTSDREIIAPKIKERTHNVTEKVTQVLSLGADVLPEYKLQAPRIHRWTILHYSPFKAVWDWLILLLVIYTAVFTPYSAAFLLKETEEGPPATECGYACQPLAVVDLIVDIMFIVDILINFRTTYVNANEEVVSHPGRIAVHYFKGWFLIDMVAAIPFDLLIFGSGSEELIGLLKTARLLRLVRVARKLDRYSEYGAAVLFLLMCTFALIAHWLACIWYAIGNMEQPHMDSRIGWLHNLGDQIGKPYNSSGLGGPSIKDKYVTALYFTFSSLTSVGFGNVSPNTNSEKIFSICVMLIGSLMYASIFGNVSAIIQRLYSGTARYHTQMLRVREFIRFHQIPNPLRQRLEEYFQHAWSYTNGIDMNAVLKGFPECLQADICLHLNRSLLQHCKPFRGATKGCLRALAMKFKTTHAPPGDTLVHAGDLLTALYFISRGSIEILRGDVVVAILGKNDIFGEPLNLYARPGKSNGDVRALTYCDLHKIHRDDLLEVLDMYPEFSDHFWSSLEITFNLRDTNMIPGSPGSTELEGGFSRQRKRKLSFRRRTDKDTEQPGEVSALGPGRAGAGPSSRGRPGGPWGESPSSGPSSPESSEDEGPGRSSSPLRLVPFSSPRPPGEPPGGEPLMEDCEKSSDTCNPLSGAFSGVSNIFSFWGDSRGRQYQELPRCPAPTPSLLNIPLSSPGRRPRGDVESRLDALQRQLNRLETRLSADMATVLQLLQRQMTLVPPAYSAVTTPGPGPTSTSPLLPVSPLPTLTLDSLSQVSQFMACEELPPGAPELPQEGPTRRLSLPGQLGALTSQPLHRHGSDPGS
As for `Cn1c(SCC(=O)NNC(=O)Cc2ccccc2)nnc1-c1ccccc1`, the “hERG current change (%, negative = inhibition) at 1uM” value was 10.1%. As for `CC(C)(C)n1nc2c(c1NC(=O)COc1ccccc1F)CS(=O)(=O)C2`, the figure is 3.22%; as for `Cc1[nH]n(-c2ccccc2)c(=O)c1N=Nc1ccc(C(N)=O)cc1`, 19.8%.

Consider `COc1cccc(NC(=O)C2CCCN2C(=O)Nc2ccccc2F)c1` (stereo not shown), for which the “hERG current change (%, negative = inhibition) at 1uM” value came out at 0.224%. As for `CC(=O)Nc1ccc(N2C(=O)CSC2c2ccccc2)cc1` (stereo not shown), the figure is 11.1%. In the case of `COC(=O)c1ccccc1NC(=O)c1ccc(NC(=O)C2CCCO2)cc1` (stereo not shown) it was -0.206%; in that of `Cc1cccc(N=Nc2cnc(N)s2)c1`, 6.35%. On to `CCCc1ccc(-c2cc(C(=O)NC3=NCCS3)c3ccccc3n2)cc1`, for which the “hERG current change (%, negative = inhibition) at 1uM” value was found to be 1.42%. As for `COc1cc2c(c(O)c1OC)C(=O)C(OC)CCC2` (stereo not shown), the figure is 0.157%; as for `CC(=O)c1c(C)[nH]c(C(=O)COC(=O)COc2ccccc2F)c1C`, -0.562%; as for `Cc1nn(C2CCS(=O)(=O)C2)c(Cl)c1/C=C/C(=O)OCC(=O)N(C)C` (stereo not shown), 9.75%. In the case of `O=C(CCN1C(=O)C2C3C=CC(C3)C2C1=O)NC1CCCc2ccccc21` (stereo not shown) it was 8.1%; in that of `CC(C)C[C@@H](CO)N1CCN(Cc2cccnc2)CCC1=O`, 6.9%; in that of `COc1ccc(OC(C)C(=O)Nc2ccccc2F)cc1` (stereo not shown), 12.5%. As for `CCc1c(C(=O)NN2C(=O)C3CCCCC3C2=O)csc1C` (stereo not shown), the figure is 15.2%.

Turning to `Cc1coc2cc3oc(=O)c4c(c3cc12)CCC4`, the “hERG current change (%, negative = inhibition) at 1uM” value came to 13.7%.

For `Cl.O=C(CNCC(=O)Nc1ccc(F)c(F)c1F)Nc1ccc(F)c(F)c1F`, the “hERG current change (%, negative = inhibition) at 1uM” value came out at 5.75%. Consider `Cc1ccc(S(=O)(=O)N2CCC(=O)N(C(COCc3ccccc3)Cc3ccccc3)CC2)cc1` (stereo not shown), for which the “hERG current change (%, negative = inhibition) at 1uM” value was found to be 17.5%. With `COc1ccccc1N1CCN(C(=O)CN(Cc2ccc(Cl)cc2)S(C)(=O)=O)CC1`, the “hERG current change (%, negative = inhibition) at 1uM” value is recorded as 10.7%. In the case of `O=C1C=C(NC2=CC3OC(c4ccccc4)OCC3OC2=O)CCC1` (stereo not shown) it was 11.2%. Regarding `O=C(Nc1ccccc1)Nc1nnc(Cc2ccc(F)cc2)s1`, the “hERG current change (%, negative = inhibition) at 1uM” value amounted to 13.8%. In the case of `CCc1ccc(OC)c(-c2csc(N)n2)c1` it was 7.14%; in that of `COc1ccc(-c2[nH]ncc2CN2CCC(OCc3cccnc3)CC2)c(F)c1`, -10.6%; in that of `CCc1ccccc1-n1nnnc1-c1cnccc1C(F)(F)F`, 3.85%. In the case of `COc1ccc(/C=C/c2cc(C(=O)O)c3ccccc3n2)cc1` it was 11.9%; in that of `CN(C)c1ccc(/C=N/N(CCO)C2=NS(=O)(=O)c3ccccc32)cc1`, 20.8%. In the case of `O=C(Nc1ccccc1)c1ccsc1` it was 7.56%. `CCOc1ccccc1N=Nc1c(C)[nH]n(-c2ccccc2)c1=O`: the “hERG current change (%, negative = inhibition) at 1uM” value amounted to 12.3%. As for `CC(C)N(C(=O)Cn1c(SCC(=O)NC2CC2)nc2ccccc21)C(C)C`, the figure is 4.23%.

Turning to `O=C(O)[C@H](Cc1ccccc1)N1Cc2ccccc2C1=O`, the “hERG current change (%, negative = inhibition) at 1uM” value amounted to 0.491%. In the case of `O=C(O)c1ccc(Cl)c(S(=O)(=O)Nc2ccc(OCc3ccccc3)cc2)c1`, the “hERG current change (%, negative = inhibition) at 1uM” value came out at 13.7%. As for `c1ccc(-n2nc3c(ccc4cnnc43)[nH]2)cc1`, the figure is 5.82%. As for `Cc1cccc(N2CCN(CC(=O)N(C)Cc3ccccc3)CC2C)c1` (stereo not shown), the figure is 3.42%. As for `CCOC(=O)c1ccc(NNC(C)=O)c([N+](=O)[O-])c1`, the figure is 5.93%; as for `O=C(N/N=C/c1c[nH]c2ccccc12)C1CC1c1ccccc1` (stereo not shown), 0.812%; as for `O=C(COc1ncnc2ccccc12)NC(=O)NCc1ccccc1`, 6.9%. Take `O=C(O)c1ccc(N2C(=O)CSC2=S)cc1`: the “hERG current change (%, negative = inhibition) at 1uM” value was found to be 2.13%.

As for `COCC(C)n1c(C)cc(C(=O)CSc2nc(C)c(C)c(C)n2)c1C` (stereo not shown), the “hERG current change (%, negative = inhibition) at 1uM” value amounted to 4.28%. In the case of `CC(C)(C)c1ccccc1NC(=O)CN1C(=O)NC2(CCCCCC2)C1=O`, the “hERG current change (%, negative = inhibition) at 1uM” value is given as 6.91%. As for `O=S(=O)(c1ccccc1)N(CC1CO1)c1cc(Cl)ccc1Cl` (stereo not shown), the “hERG current change (%, negative = inhibition) at 1uM” value was 12.1%. For the compound `Cc1ccc(-c2noc(CCC(=O)NCc3ccco3)n2)cc1`, the “hERG current change (%, negative = inhibition) at 1uM” value is reported as 5.54%. In the case of `COc1ccc(NC(=O)COC(=O)c2cc3c(s2)CCC3)cc1` it was -9.61%. As for `O=C(CSc1nc2ccccc2n1Cc1ccc(Cl)cc1)N/N=C/c1ccccc1C(=O)O`, the figure is 9.65%; as for `O=C(NC1CC2CCCC(C1)N2C(=S)Nc1ccc(Cl)cc1)C1CC1` (stereo not shown), 4.82%. In the case of `CSc1ccccc1NC(=O)C(C)N1C(=O)c2ccccc2S1(=O)=O` (stereo not shown) it was 8.25%; in that of `Cc1cccc(NC(=S)N(CCCN2CCCC2)Cc2cccn2Cc2ccc(Cl)cc2)c1`, -16.6%.
